This is an account of results in ChEMBL document CHEMBL1201862, “PubChem BioAssay data set” (2004).

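Step 1: Grow cells in 96-well plates. Step 2: Expose to compound for 48 hours at 5 concentrations. Step 3: Interpolate endpoints linearly; if unreached, use highest concentration. Abbreviation: GI50, concentration required for 50% inhibition of growth.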 Activity calls are given as the source filed them. No stated cut-off is given here; in the data, active = GI50 up to about 1.1 µM and inactive = higher.

As a reminder, the GI50 is the concentration giving 50% growth inhibition.

The assay concerns NCI-H322M. Kind of assay: DTP human tumour cell line panel, 48 h.
As for `COc1cc2cc(OC(C)=O)c3cc4c(cc3c2c(OC)c1OC)OCO4`, the GI50 was inactive: > 100 µM. Consider `Cn1ncc2c(Nc3cccc(Cl)c3)nc(Nc3cccc(Cl)c3)nc21`, for which the GI50 is inactive: 12.9 µM. Take `ON(CCc1ccccn1)Cc1ccccc1`: the GI50 was inactive: > 100 µM. As for `COc1ccc2c(n1)Sc1nc3ccccc3nc1N2`, the GI50 is inactive: 48.6 µM.

For `CN(C)CCSCCO`, the GI50 was inactive: > 100 µM. Turning to `O=C(Nc1ccc([N+](=O)[O-])cc1)C(=O)C(C(=O)c1ccccc1F)C1OC(=O)c2ccccc21` (stereo unspecified), the GI50 was inactive: 30.1 µM. Next, `c1ccc2sc(C3(N4CCCCC4)CCCC3)cc2c1`: inactive: 11.1 µM. For the compound `CCOC(=O)/C(C#N)=N\Nc1ccc(-n2c(C)nc3ccc(Br)cc3c2=O)cc1`, the GI50 is inactive: 95.9 µM. Next, `O=C1C(Cl)C(c2cc3cc(Br)ccc3nc2Cl)N1c1ccc(Cl)cc1` (stereo unspecified): inactive: 5.05 µM; `O=[As](O)(O)c1ccc(/N=N/c2ccc(O)cc2)cc1`: inactive: > 100 µM; `C=CCNC1=C2C[C@@H](C)C[C@@H](OC)[C@H](OC(=O)CCCCN)[C@H](C)/C=C(\C)[C@@H](OC(N)=O)[C@H](OC)/C=C\C=C(/C)C(=O)NC(=CC1=O)C2=O`: inactive: 12.6 µM. As for `Nc1ccc(Oc2ccc(C3(c4ccc(Oc5ccc(N)c(O)c5)cc4)C4CC5CC(C4)CC3C5)cc2)cc1O`, the GI50 is inactive: 1.15 µM. In the case of `C1=C(c2ccccc2)CN(c2ccccc2)OC1`, the GI50 is inactive: > 100 µM. As for `O=C(O)C#Cc1ccc([N+](=O)[O-])cc1`, the GI50 was inactive: > 100 µM. `COc1cc2c[n+](C)c3c4cc(OC)c(OCc5ccccc5)cc4c(OCc4ccccc4)cc3c2cc1OC`: the GI50 was inactive: 21.6 µM. With `O=C(O)C1C(C(=O)O)C(C(=O)O)C1C(=O)O` (stereo unspecified), the GI50 was inactive: > 100 µM.

For `N#CC(C#N)=C1C(C#N)=C(N)NC12OCCO2`, the GI50 was inactive: > 100 µM.

Turning to `COC(=O)C(NC(=O)c1ccccc1)C(c1c(O)cc(O)cc1O)P(=O)(OC)OC` (stereo unspecified), the GI50 was inactive: > 100 µM. Consider `O=C(CC(C(=O)c1cccs1)c1ccsc1)c1ccccc1` (stereo unspecified), for which the GI50 was inactive: > 100 µM.

On to `O=c1cc(NCC2CCCCC2)[nH]c(=O)[nH]1`, for which the GI50 was inactive: > 100 µM.

Take `Cn1c(=O)c2c(nc(NCCCCl)n2CC(=O)O)n(C)c1=O`: the GI50 is inactive: > 100 µM. The value for `C/C(=C/C(=O)Nc1ccccc1)Nc1onc(C)c1C` was inactive: > 100 µM; that for `CC12CC(c3ccccc3O1)C(C(=O)Nc1ccc(F)cc1)C(=O)N2` (stereo unspecified) was inactive: > 100 µM; that for `COC(=O)c1ccc(C(=O)NC(Cc2ccc(Oc3cc(CC(NC(=O)c4ccccc4C(=O)OC)C(=O)OC)ccc3OC)cc2)C(=O)OC)cc1` (stereo unspecified) was inactive: > 100 µM. As for `Cc1cc(C)c(S(=O)(=O)N2CCN(S(=O)(=O)c3c(C)cc(C)cc3C)OCCCCCO2)c(C)c1`, the GI50 is inactive: > 100 µM. In the case of `O=C(/C=C/c1ccc([N+](=O)[O-])cc1)c1ccc(NCc2nc3ccccc3[nH]2)cc1`, the GI50 was inactive: 7.08 µM. In the case of `CC1(C)OC2[C@@H](CO[C@@]3([C@H]4OC(C)(C)O[C@@H]4CO)OC(C)(C)O[C@@H]23)O1` (stereo partly specified), the GI50 was inactive: > 100 µM. The value for `N#CC1=C(N)OC(c2cccc([N+](=O)[O-])c2)C1(C#N)C#N` (stereo unspecified) was inactive: 16.2 µM; that for `COc1cccc(-n2nnc3c(N)nc(N)nc32)c1` was inactive: > 100 µM; that for `N#CC(C#N)=C/C=C/c1c(Cl)cccc1Cl` was inactive: 2.48 µM. As for `CCCCCCCCOCC(O)COC` (stereo unspecified), the GI50 is inactive: > 100 µM. Regarding `Cc1cc(C)[n+](CCOc2ccc(/C(=C(/Cl)c3ccccc3)c3ccccc3)cc2)c(C)c1.[O-][Cl+3]([O-])([O-])[O-]`, the GI50 was inactive: 3.13 µM. As to `CSc1nc(C)cc(Nc2ccc(O)c(CN3CCOCC3)c2)n1`, the GI50 is inactive: > 100 µM. In the case of `CCO/N=[N+](\[O-])N(CC)CC`, the GI50 is inactive: > 100 µM. For `O=C(/C=C\c1ccc(Cl)c(Cl)c1)c1ccc(Cl)cc1Cl`, the GI50 was inactive: 18.3 µM. Consider `O=C1C(=O)c2c(oc(=O)c3ccccc23)-c2ccccc21`, for which the GI50 is inactive: > 25 µM. Regarding `Oc1ccc(Cl)cc1-c1cc(-c2ccccc2)nc(S)n1`, the GI50 was inactive: > 100 µM. `COC1(C(C)(C)C)C=C(C(C)(C)C)P(=O)(O)O1` (stereo unspecified): the GI50 was inactive: > 100 µM. For `O=C1CCC(=O)C(C(=O)CCC(=O)Nc2ccc(Cl)cc2)C1` (stereo unspecified), the GI50 was inactive: > 100 µM. As for `Cn1c(=O)cc(/N=N\c2ccc(Cl)c(Cl)c2)[nH]c1=O`, the GI50 was inactive: > 100 µM.

For `CCCCOC(=O)CN1C(=O)c2ccccc2C1=O`, the GI50 was inactive: > 100 µM. Consider `COC(=O)C(Cc1ccccc1)NP(=O)(O)OCC1OC(n2cc(Br)c(=O)[nH]c2=O)CC1O` (stereo unspecified), for which the GI50 is inactive: > 100 µM. `CC1C/C(=C\c2ccc(OC(=O)C(C)(C)C)cc2)C(=O)/C(=C/c2ccc(OC(=O)C(C)(C)C)cc2)C1` (stereo unspecified): the GI50 is inactive: > 100 µM. As for `CC(C)c1cccc(C(C)C)c1NC(=O)C(=O)C(C(=O)c1ccccc1-c1ccccc1)C1OC(=O)c2ccccc21` (stereo unspecified), the GI50 was inactive: 14 µM. Next, `CC(=O)SCCC(NC(=S)Nc1ccccc1)P(=O)(Oc1ccccc1)Oc1ccccc1` (stereo unspecified): inactive: 35.1 µM; `CCN1C(C)=NC2C(=O)c3ccccc3C(=O)C21` (stereo unspecified): inactive: 87.5 µM. Turning to `COc1cc(OC)cc(C(=O)CC(=O)c2cc(OC)cc(OC)c2)c1`, the GI50 is inactive: > 100 µM. `CC1(C)N=c2c(ncn2Cc2ccccc2)=C(C(N)=O)N1`: the GI50 is inactive: > 100 µM. Next, `CC(CC(=O)O)C(C(=O)O)C(=O)O` (stereo unspecified): inactive: > 100 µM.

For `O=C(NC12CC3CC(CC(F)(C3)C1)C2)c1ccccc1`, the GI50 is inactive: > 100 µM.

Regarding `C[P+](C)(C)c1ccccc1`, the GI50 was inactive: > 100 µM.

Regarding `COC(=O)CCSC(=O)Nc1ccccc1Cl`, the GI50 is inactive: > 100 µM. The value for `CNC(=O)c1nc[nH]c1/N=N/N(C)N` was inactive: > 100 µM; that for `CN1CCC(=O)/C(=C/c2ccccc2)C1` was inactive: 17.1 µM; that for `Cc1ccc(/C=C2\Cc3cccc(C)c3C2=O)c(C(=O)O)c1` was inactive: > 100 µM.

On to `Cc1cc2c(cc1C)OC(=O)CC2`, for which the GI50 was inactive: > 100 µM. Next, `O=c1[nH]nc(Cc2ccccc2)n1/N=C/c1ccco1`: inactive: > 100 µM; `O=C(CSCC(=O)N/N=C/c1cccc(C(F)(F)F)c1)N/N=C/c1cccc(C(F)(F)F)c1`: inactive: > 100 µM. `CCCCNCCCNCCCNC(=O)c1csc(-c2csc(CCNC(=O)C(NC(=O)C(C)C(O)C(C)NC(=O)C(NC(=O)c3nc(C(CC(N)=O)NCC(N)C(N)=O)nc(N)c3C)C(OC3OC(CO)C(O)C(O)C3OC3OC(CO)C(O)C(OC(N)=O)C3O)c3c[nH]cn3)C(C)O)n2)n1` (stereo unspecified): the GI50 is inactive: > 50 µM. With `C/C(=C\COc1ccc2ccc(=O)oc2c1)CCC(=O)C(C)(C)O`, the GI50 is inactive: 45.7 µM. Next, `CC(C)(CN1CCCCC1)C(=O)/C=C/c1ccccc1`: inactive: 8.67 µM; `O=C(CSCC(=O)N/N=C\c1cccc(Br)c1)N/N=C\c1cccc(Br)c1`: inactive: 11.1 µM; `COc1cccc(/N=N/C(=N/NC(=O)c2cc(Cl)ccc2O)c2ccc(N(CCC#N)CCC#N)cc2C)c1`: inactive: 54.7 µM. As to `COc1cccc(N2C(=O)C3c4[nH]c5ccccc5c4C4CCCC4C3C2=O)c1` (stereo unspecified), the GI50 was inactive: > 10 µM. For the compound `CC1C(OC2O[C@@H]3O[C@@]4(C)CC[C@H]5[C@H](C)CC[C@@H](C2C)[C@@]35O4)O[C@@H]2O[C@@]3(C)CC[C@H]4[C@H](C)CC[C@@H]1[C@@]24O3` (stereo partly specified), the GI50 was inactive: > 50 µM.

Consider `O=C(O)CC(Sc1ccccc1)c1ccccc1` (stereo unspecified), for which the GI50 is inactive: > 100 µM.

With `N#CC(=N)c1ncn(-c2ccc(N)cc2)c1N`, the GI50 was inactive: 19.9 µM. Take `CC1(C)CC[C@]2(C(=O)O)CC[C@]3(C)C(=CC[C@@H]4[C@@]5(C)C[C@H](O)[C@H](O)[C@@](C)(CO)C5=CC[C@]43C)[C@@H]2C1`: the GI50 is inactive: 49.7 µM. Regarding `CC(=N/NC(=S)N(C)C)/C(=N\NC(=S)N(C)C)c1ccccc1`, the GI50 is inactive: 2.21 µM. Next, `C[C@H](NC(=O)CNC(=O)CCCCCC(=O)NCC(=O)N[C@@H](C)C(=O)OCc1ccccc1)C(=O)OCc1ccccc1`: inactive: > 100 µM; `NC1C/C(=N\O)c2c(Cl)sc(Cl)c21` (stereo unspecified): inactive: 83.9 µM; `CCCCCCCC(CC(=O)NC(CO)C(=O)NC(CO)CC(C)C)OC(=O)CC(CCCCCCC)OC(=O)CC(CCCCCCC)OC1OC(C)C(O)C(OC2OC(C)C(OC(C)=O)C(O)C2O)C1O` (stereo unspecified): inactive: 10.9 µM.

Consider `NCC(=O)N[C@H]1c2ccsc2/C(=N/O)[C@H]1O`, for which the GI50 is inactive: > 100 µM.

As to `CN1c2ccccc2N(C(=O)c2ccc(Cl)cc2)C(CC(=O)O)c2cccn21` (stereo unspecified), the GI50 is inactive: > 100 µM. `COc1cc(C2S/C(=C/c3ccccc3)C(=O)N2c2cc(Cl)ccc2Cl)cc(OC)c1OC` (stereo unspecified): the GI50 is inactive: 56 µM.

Turning to `C[C@H](Nc1nc(N)c(N=O)c(=O)n1C)C(=O)O`, the GI50 was inactive: > 10 µM. With `NC(CCC(=O)NC(CSSCCCCS(=O)O)C(=O)NCC(=O)O)C(=O)O` (stereo unspecified), the GI50 is inactive: > 100 µM.

In the case of `COc1cc(C2c3cc4c(cc3[C@@H](N(C)c3ccc(N(C)C)cc3)C3COC(=O)C23)OCO4)cc(OC)c1O` (stereo partly specified), the GI50 was inactive: 3.74 µM. The value for `COS(=O)CCOC(=O)c1ccccc1SSc1ccccc1C(=O)OCCS(=O)OC` (stereo unspecified) was inactive: > 100 µM; that for `CC(O)c1cc2c(s1)C(=O)c1c(C(C)O)csc1C2=O` (stereo unspecified) was active: 0.153 µM. `CCC[S+]([O-])c1nc(COC(=O)NC)c(COC(=O)NC)n1C` (stereo unspecified): the GI50 was inactive: > 100 µM.
